# Out of some 52,000 compounds screened, about 4,300 (8.3%) were called active. Rule as the data show it: active = survival mostly below about 52% (no sharp cut-off); inactive = mostly above about 56%. The list shows a part of the results.
# Test system: DeltatarO mutant
# Assay: S. aureus survival, RN4220 and DeltatarO strains – OD600, teichoic acid synthesis inhibitors, primary screen (AID 463173)
# Conditions: S. aureus RN4220 wild type/DeltatarO growth, OD600, 18 h, hits give low values, screened at 18.75 µg/mL (by protocol)
row,SMILES,survival
1,CCOc1ccccc1NC(=O)c1c(NCc2sccc2C)sc2c1CCCCC2,inactive: 95%
2,CS(=O)(=O)N(CC(=O)N1CCCCC1)Cc1ccccc1,inactive: 88%
3,O=S(=O)(Nc1ccc(Cl)cc1)c1ccc(NS(=O)(=O)c2ccc3c(c2)OCCO3)cc1,active: 38%
4,Cc1ccc(CN(C(=O)COc2cccc([N+](=O)[O-])c2)c2ccccn2)o1,inactive: 62%
5,CCC(=O)N1CCc2cc(Br)cc(S(=O)(=O)N3CCCC(C(=O)Nc4ccc(OC)c(Cl)c4)C3)c21 (centres undefined),inactive: 92%
6,COc1cc2ccccc2cc1C(=O)Nc1cccc(-c2nc3cc(C)c(C)cc3o2)c1C,active: 45%
7,COc1ccc2oc(=O)c(C(=O)NCCc3c(C)[nH]c4c(Cl)cccc34)cc2c1,inactive: 62%
8,O=C(Nc1cccc(Cl)c1Cl)c1ccc2c(c1)N(Cc1cccc(Cl)c1)C(=O)c1ccccc1S2(=O)=O,inactive: 108%
9,Cc1nc2nc(NCc3cccc(Br)c3)[nH]n2c(=O)c1Cc1ccccc1,inactive: 54%
10,CCOc1ccc(OCC)c(NC(=O)Cn2ncc3c4ccccc4n(Cc4ccccc4)c3c2=O)c1,inactive: 94%
11,Cn1ccc2cc(S(=O)(=O)N3CCCN(C(=O)Nc4ccccc4Br)CC3)ccc21,inactive: 67%
12,CCC1CN(C(=O)N2CCC(C(=O)NCCN(C)C)CC2)c2ccccc2O1 (centres undefined),inactive: 82%
13,CCOc1ccccc1NC(=O)CC1SC(=N)N(c2ccccc2)C1=O (centres undefined),inactive: 85%
14,Cc1ccc(NC(=O)c2cnc(SCC(=O)N3CCOCC3)n(C)c2=O)cc1,inactive: 67%
15,CCNc1nc(NCC)nc(N(C)N)n1,inactive: 71%
16,COc1cc(-c2noc(-c3ccc(NCc4cccnc4)c([N+](=O)[O-])c3)n2)cc(OC)c1OC,inactive: 106%
17,COc1ccc(OC)c(CNC(=O)CCCn2ccc3cc(S(=O)(=O)N4CCCC4)ccc32)c1,inactive: 89%
18,O=C(CSc1nccn1-c1ccccc1)Nc1nc2ccccc2s1,inactive: 99%
19,CCOc1ccc(CCNC(=O)CCCn2nc(C)c3sc4ccccc4c3c2=O)cc1OCC,inactive: 96%
20,CCOc1ccc(CNC(=O)CCC(=O)N2CC(C)Sc3ccccc32)cc1 (centres undefined),inactive: 56%

row,SMILES,survival
1,COC(=O)CC1c2cc(OC)c(OC)cc2CCN1C(=O)Nc1ccc(C)cc1Cl (centres undefined),inactive: 82%
2,COc1ccccc1Nc1nn2c(=O)c3ccc(C(=O)NCCCOC(C)C)cc3nc2s1,inactive: 71%
3,C=CCNC(=O)Cn1nc(-c2ccccc2F)ccc1=O,inactive: 101%
4,N#C/C(=C/c1cn(Cc2ccc(F)cc2)c2ccccc12)C(=O)Nc1cccc(Cl)c1,inactive: 92%
5,COc1cc(C(=O)Oc2c(Sc3ccc(C)cc3)c(C)nn2-c2ccccc2)cc(OC)c1OC,inactive: 109%
6,Nc1ccc(C(=O)N2CCCC2)cc1,inactive: 87%
7,CCNC(=O)c1cnc2sc(N3CCCCCC3)nn2c1=O,inactive: 81%
8,O=C1c2ccccc2C(=O)N1CC(O)COC1CCCCC1 (centres undefined),inactive: 81%
9,COC(=O)c1c(C)sc(-c2c(-c3ccc4c(c3)OCCO4)[nH]c3c2c(=O)n(C)c(=O)n3C)c1O,active: 43%
10,COc1ccc(NC(=O)/C(C#N)=C/C=C/c2ccco2)cc1,inactive: 60%
11,COc1cccc(NC(=O)CN(C)S(=O)(=O)c2ccc3nc(C)sc3c2)c1,inactive: 84%
12,COc1ccc(C)cc1N(C)C(=O)c1c(C)oc2ncnc(N3CCOCC3)c12,inactive: 88%
13,CC1CC2(NC(=O)NC2=O)C(C)CN1C (centres undefined),inactive: 82%
14,CN(c1ccc(Cl)cc1)S(=O)(=O)c1nnc(NC(=O)C2CCCCC2)s1,inactive: 106%
15,O=C1Cc2ccccc2CC(=O)N1,inactive: 100%
16,CC(=O)NC(NC(C)=O)C(=O)c1ccccc1,inactive: 95%
17,Cn1c(=O)c2cc(C(=O)N3CCN(c4ccc(Cl)cc4)CC3)sc2c2ccccc21,active: 56%
18,O=C(Cn1cc(/C=C2\SC(=S)NC2=O)c2ccccc21)NCc1ccco1,inactive: 88%
19,Cc1oc(-c2ccc(C(=O)Nc3cc(F)ccc3F)cc2)nc1COc1ccccc1,inactive: 97%
20,O=C(NCCc1ccc(Cl)cc1)c1ccc(CS(=O)Cc2cccc(Cl)c2)o1 (centres undefined),active: 38%

row,SMILES,survival
1,CCC(C)NC(=O)c1cnn(-c2ccc(Cl)cc2)c1C1CCN(C(=O)OC(C)(C)C)CC1 (centres undefined),inactive: 85%
2,Cc1cccc(Nc2cc(=O)[nH]c(=O)[nH]2)c1,inactive: 94%
3,COC(=O)c1n[nH]n(-c2ccccc2)c1=O,inactive: 92%
4,Nc1nnc(SCC(=O)Nc2ccccc2C(F)(F)F)s1,inactive: 146%
5,Cc1cccc(NC(=O)C2CCCN(S(=O)(=O)c3cnc[nH]3)C2)c1C (centres undefined),inactive: 87%
6,CN(C1CCCCC1)S(=O)(=O)c1ccc2c(c1)c(=O)c(C(=O)NCCc1ccccc1)cn2C,inactive: 79%
7,Cc1ccn2c(Nc3ccc4c(c3)OCCO4)c(-c3ccc(Cl)s3)nc2c1,inactive: 102%
8,Cc1ccc2[nH]c(=O)c(CNC3CCCC3)cc2c1,inactive: 75%
9,CN(C)C(=O)c1c(NC(=O)c2ccccc2F)sc2c1CCCC2,inactive: 76%
10,COc1ccc(Cn2c(C(=O)O)c(CNCCc3cc(OC)ccc3OC)c3ccc(C)cc32)cc1,inactive: 85%
11,COc1ccc(C2=NC(C)(C)N(CC(=O)Nc3cccc(C)c3)C2=O)cc1,inactive: 76%
12,O=C(COc1ccc2ccccc2c1)NC1CC(=O)N(c2cccc(F)c2)C1 (centres undefined),inactive: 112%
13,CC1=C(C(=O)Nc2ccc(Cl)cc2)C(CC(C)C)n2nc(SCc3ccccc3C)nc2N1 (centres undefined),inactive: 127%
14,COc1ccccc1NC(=O)CSc1nc2ccccc2cc1C#N,inactive: 104%
15,Cc1ccc(S(=O)(=O)Nc2nc3n(n2)C(c2ccc(F)cc2)C=C(c2ccccc2)N3)cc1 (centres undefined),active: 29%
16,COc1cc(C2Nc3c(C)cc(C)cc3-c3cc(C)nn32)cc(OC)c1O (centres undefined),inactive: 131%
17,O=C(c1cccn1-c1nnc(N2CCCC2)s1)N1CCN(c2ccc(Cl)cc2)CC1,inactive: 63%
18,Cn1nnc(C(O)CN2CCOCC2)n1 (centres undefined),inactive: 75%
19,Cc1ccc2c(c1)C(c1ccccc1)N(C(=O)Cc1ccc(F)cc1)CC(=O)N2 (centres undefined),inactive: 55%

# Reference: PubChem BioAssay AID463173 (ICCB-Longwood Screening Facility, Harvard Medical School, 2010)
